Measured values as given in paper PMC5515408.
Some of the results follow. At the low end of the ranking the order means little.

Molecular target: MAX:MAX (p21) (UniProt P61244-2)
Assay: protein-binding microarray (anti-MAX antibody)
Settings: PBM: 15 mM Tris-HCl pH 7.5, 100 mM KCl, 0.075% NP40, 7.5 mM beta-mercaptoethanol, 375 ng/ul BSA, 8 ng/ul poly(dA-dT):(dA-dT), 550 ng complex, 60 min, room …; high values mean tight binding; double strand, one strand shown; sequences stand for … in CCGGC…TTAATAGCTAAGATTACTATATCGACG

**Q.** For TGAATGGTGGTA, which binding signal (log2 normalized fluorescence) is on record?
**A.** 0.478

**Q.** TGAGGGGCGGTA was tested. Which binding signal (log2 normalized fluorescence) did it give?
**A.** 1.1

**Q.** Which binding signal (log2 normalized fluorescence) does the source give for TGAGTAAGTGTA here?
**A.** -0.841

**Q.** How did the binding signal (log2 normalized fluorescence) turn out when AAGGACGTGGTT was run?
**A.** 2.11

**Q.** With TGATCGGAGGTA as the sequence, how does the binding signal (log2 normalized fluorescence) read?
**A.** -0.909

**Q.** Which binding signal (log2 normalized fluorescence) does the source give for TGAATATGGGTA here?
**A.** -0.371

**Q.** TGACACACGTTA was tested. Which binding signal (log2 normalized fluorescence) did it give?
**A.** 2.37

**Q.** Which binding signal (log2 normalized fluorescence) does the source give for TATAACGTGGTA here?
**A.** 2.9

**Q.** Which binding signal (log2 normalized fluorescence) does the source give for TGAAGCCTAGTA here?
**A.** -1.12

**Q.** For TAATACGTGGTA, which binding signal (log2 normalized fluorescence) is on record?
**A.** 1.49

**Q.** Which binding signal (log2 normalized fluorescence) does the source give for TGACACGTTGCG here?
**A.** 3.23

**Q.** How did the binding signal (log2 normalized fluorescence) turn out when TGACACGTGCAA was run?
**A.** 3.47

**Q.** How did the binding signal (log2 normalized fluorescence) turn out when TGAACCCAGGTA was run?
**A.** -0.34

**Q.** How did the binding signal (log2 normalized fluorescence) turn out when TGATCCGCCGTA was run?
**A.** -1.04

**Q.** Which binding signal (log2 normalized fluorescence) does the source give for TGACGGAGGGTA here?
**A.** -0.496

**Q.** Which binding signal (log2 normalized fluorescence) does the source give for TGAAGAAGAGTA here?
**A.** -1.08

**Q.** How did the binding signal (log2 normalized fluorescence) turn out when TGAGATCTAGTA was run?
**A.** -1.23

**Q.** TGACACGTCTCA was tested. Which binding signal (log2 normalized fluorescence) did it give?
**A.** 1.5

**Q.** With TGATACGTGATA as the sequence, how does the binding signal (log2 normalized fluorescence) read?
**A.** 0.465

**Q.** Which binding signal (log2 normalized fluorescence) does the source give for TGATGACTGGTA here?
**A.** -0.0453

**Q.** TGAACCATGGTA was tested. Which binding signal (log2 normalized fluorescence) did it give?
**A.** 1.06

**Q.** TGAGCCTAGGTA was tested. Which binding signal (log2 normalized fluorescence) did it give?
**A.** -1.22

**Q.** For TGATTTAAAGTA, which binding signal (log2 normalized fluorescence) is on record?
**A.** -1.2

**Q.** How did the binding signal (log2 normalized fluorescence) turn out when TGATAGACCGTA was run?
**A.** -1.06

**Q.** For TGACGCTGAGTA, which binding signal (log2 normalized fluorescence) is on record?
**A.** -0.349

**Q.** With TGACTGGAGGTA as the sequence, how does the binding signal (log2 normalized fluorescence) read?
**A.** -0.145

**Q.** How did the binding signal (log2 normalized fluorescence) turn out when TGATTGAGCGTA was run?
**A.** -1.01

**Q.** TGACCTGGCGTA was tested. Which binding signal (log2 normalized fluorescence) did it give?
**A.** -0.143

**Q.** TGAACCTCCGTA was tested. Which binding signal (log2 normalized fluorescence) did it give?
**A.** -0.39

**Q.** With TGACTACCCGTA as the sequence, how does the binding signal (log2 normalized fluorescence) read?
**A.** -0.356

**Q.** How did the binding signal (log2 normalized fluorescence) turn out when GGACACGGGGTT was run?
**A.** 3.1

**Q.** With TGAGAAGCAGTA as the sequence, how does the binding signal (log2 normalized fluorescence) read?
**A.** -0.962

**Q.** TGACGAGACGTA was tested. Which binding signal (log2 normalized fluorescence) did it give?
**A.** -0.279

**Q.** How did the binding signal (log2 normalized fluorescence) turn out when TGAGACGGCGTA was run?
**A.** -0.682

**Q.** TGAAACACTGTA was tested. Which binding signal (log2 normalized fluorescence) did it give?
**A.** -0.0628

**Q.** TGTTTCGTGGTA was tested. Which binding signal (log2 normalized fluorescence) did it give?
**A.** -0.286

**Q.** Which binding signal (log2 normalized fluorescence) does the source give for TGATCATTTGTA here?
**A.** -0.488

**Q.** For TGAGAGGGGGTA, which binding signal (log2 normalized fluorescence) is on record?
**A.** 1.39

**Q.** TGAAGCTAGGTA was tested. Which binding signal (log2 normalized fluorescence) did it give?
**A.** -0.891

**Q.** For TGAACGAGTGTA, which binding signal (log2 normalized fluorescence) is on record?
**A.** 0.122

**Q.** Which binding signal (log2 normalized fluorescence) does the source give for TGACACCTAGTA here?
**A.** -0.239

**Q.** Which binding signal (log2 normalized fluorescence) does the source give for TGAATTAGTGTA here?
**A.** -0.804

**Q.** How did the binding signal (log2 normalized fluorescence) turn out when TGAGGCGCCGTA was run?
**A.** -0.102

**Q.** With TGATCAGCCGTA as the sequence, how does the binding signal (log2 normalized fluorescence) read?
**A.** -0.569

**Q.** How did the binding signal (log2 normalized fluorescence) turn out when TGACGCCACGTA was run?
**A.** 0.637

**Q.** With TGACACGTGTCT as the sequence, how does the binding signal (log2 normalized fluorescence) read?
**A.** 3.41

**Q.** Which binding signal (log2 normalized fluorescence) does the source give for TGAACGGAGGTA here?
**A.** -0.465

**Q.** With CGACACGGGGTC as the sequence, how does the binding signal (log2 normalized fluorescence) read?
**A.** 2.95

**Q.** TGATAAAGCGTA was tested. Which binding signal (log2 normalized fluorescence) did it give?
**A.** -0.982

**Q.** TGGGACGTGGTA was tested. Which binding signal (log2 normalized fluorescence) did it give?
**A.** 1.54

**Q.** With TGATGGACCGTA as the sequence, how does the binding signal (log2 normalized fluorescence) read?
**A.** -0.043

**Q.** For TGAGAATCAGTA, which binding signal (log2 normalized fluorescence) is on record?
**A.** -1.25

**Q.** For TGAGGTGGTGTA, which binding signal (log2 normalized fluorescence) is on record?
**A.** -0.0636

**Q.** For TGACAAATCGTA, which binding signal (log2 normalized fluorescence) is on record?
**A.** -0.658

**Q.** How did the binding signal (log2 normalized fluorescence) turn out when TGATACCTTGTA was run?
**A.** -0.803

**Q.** TGAAGCCCCGTA was tested. Which binding signal (log2 normalized fluorescence) did it give?
**A.** -0.692

**Q.** TGAGGTCGGGTA was tested. Which binding signal (log2 normalized fluorescence) did it give?
**A.** -0.921

**Q.** How did the binding signal (log2 normalized fluorescence) turn out when GCAAACGTGGTA was run?
**A.** 2.98

**Q.** For TGAAGCGGAGTA, which binding signal (log2 normalized fluorescence) is on record?
**A.** -1.01

**Q.** For TGACGAGGTGTA, which binding signal (log2 normalized fluorescence) is on record?
**A.** 0.156

**Q.** Which binding signal (log2 normalized fluorescence) does the source give for TGAGCACGGGTA here?
**A.** 1.71

**Q.** For TGACTGAATGTA, which binding signal (log2 normalized fluorescence) is on record?
**A.** -0.252

**Q.** Which binding signal (log2 normalized fluorescence) does the source give for TGAGATAGTGTA here?
**A.** -1.02

**Q.** TTGGACGTGGTA was tested. Which binding signal (log2 normalized fluorescence) did it give?
**A.** 0.937

**Q.** For TGAAGATACGTA, which binding signal (log2 normalized fluorescence) is on record?
**A.** -0.921

**Q.** For TGACCCCGGGTA, which binding signal (log2 normalized fluorescence) is on record?
**A.** -0.234

**Q.** Which binding signal (log2 normalized fluorescence) does the source give for TGGCACGCGGTA here?
**A.** 3.02

**Q.** For AGACACGATGTA, which binding signal (log2 normalized fluorescence) is on record?
**A.** 3.02

**Q.** Which binding signal (log2 normalized fluorescence) does the source give for TGAATGGGGGTA here?
**A.** 1.64

**Q.** TGACACGGTTTA was tested. Which binding signal (log2 normalized fluorescence) did it give?
**A.** 1.12

**Q.** TGAAGACCTGTA was tested. Which binding signal (log2 normalized fluorescence) did it give?
**A.** -0.291

**Q.** Which binding signal (log2 normalized fluorescence) does the source give for TTACACGTGTTA here?
**A.** 3.4

**Q.** With TGAACTCGTGTA as the sequence, how does the binding signal (log2 normalized fluorescence) read?
**A.** 2.66

**Q.** How did the binding signal (log2 normalized fluorescence) turn out when TGATTGCCCGTA was run?
**A.** -0.642

**Q.** How did the binding signal (log2 normalized fluorescence) turn out when TGAATGGTAGTA was run?
**A.** 0.411
